According to article PMC10668032:
The list shows a part of the results. At the low end of the ranking the order means little.

target: SIX1-Q177R homeodomain (UniProt Q15475); test: universal protein binding microarray; settings: Universal all-10-mer PBM (8x60K, AMADID 030236), 300 nM GST-tagged protein, Alexa Fluor 488 anti-GST; buffer, salt, pH and temperature not stated; high values mean tight binding; most listed sequences are background and not binding sites; double strand, one strand shown

Sequence | binding signal [E-score]
GAACGGCC | -0.286
CCCGGAAA | -0.0144
TGGTATAA | 0.0843
CGTCTGGC | -0.165
GGGGAAGA | 0.071
ATATGATA | 0.1
GTACAAGA | -0.0849
ACACTAGC | 0.364
TCAAAGGA | -0.0664
CCGCAGTA | -0.0122
AGGGTTAA | 0.0927
TGGGGGAA | -0.155
ACGACATC | -0.0111
ACAGATCA | 0.139
ACCCGTCG | -0.000565
AGCAAGAA | -0.134
CTCGCCTC | -0.194
ATATGAAA | -0.208
AGCGCTCC | -0.222
CGCGGATA | 0.129
ACACCGAC | 0.475
GCAGGTGA | -0.0626
GACCTGCC | -0.008
AGAAACTA | -0.336
TGAAGGAA | -0.275

Sequence | binding signal [E-score]
ATTACTCA | -0.13
GACAGATC | -0.0909
ATCCAGAC | -0.00904
TCCCAAAA | -0.131
GAGGCGGA | -0.124
CTTGATCA | 0.000565
GTAAATTA | -0.0598
AATTGCTC | -0.255
CTTATCTC | -0.176
GCTGCCCC | -0.0359
ATGACACA | 0.275
GCGGTTGA | -0.0459
AGCGAAGA | -0.208
CCCCGAAA | 0.168
CACGCTAC | 0.242
GAAGCGCA | -0.155
ACAGATAC | 0.0934
ATTATGCC | -0.0188
ACACATCC | 0.157
CTAATTAG | -0.106
CTAAGGCA | -0.0509
GCAACCGA | -0.102
ATGAGGCC | -0.272
CGTTAACC | 0.0568
GCGAAATA | -0.084

Sequence | binding signal [E-score]
GGCGGATA | 0.22
GGGGCGTA | 0.159
TAGCTTGA | -0.204
CCACTGCC | -0.215
CCGAATGA | -0.0967
GTAGGCGA | 0.0515
AGTCTTTC | -0.258
ACATCGGT | -0.0686
CAGGGCTC | -0.0657
AACAACGC | -0.108
GATTTCAC | -0.0472
ATGGTGTA | 0.479
AAAAACTC | 0.0304
GACAGTCA | -0.275
CCGTTTAG | 0.0849
CGCTGGAG | -0.00689
AACTCAGA | 0.0526
AACCGACT | -0.261
CGGAACAC | 0.411
CGGGTGTA | 0.476
ACTCATTG | 0.0807
GCTCATGA | -0.128
GGTGAGTA | -0.0254
CATTGGCC | -0.18
ACGATGTG | 0.00877

Sequence | binding signal [E-score]
GTTTCAGA | -0.127
ACGCAAAG | -0.0777
CGGTAAAC | 0.00786
GAAGCGCC | -0.183
ATTTTAGA | -0.132
GGTAGCGA | -0.0335
AAAGTTCT | -0.179
CTTCCACC | -0.0181
CGTACACA | 0.268
GACCCCGC | 0.248
ATCTTGTC | -0.056
CCGACAGC | -0.0456
AAATGTTA | -0.0727
GCTGTGGA | 0.17
TCCCGTCA | -0.0259
CAAGTTCA | -0.112
CGTTGGGA | 0.0501
CATGTGAG | -0.0674
ACGCCAGG | 0.124
TCTCCCCA | 0.0316
GTTTTTCA | 0.0311
GAGGCACA | -0.0183
GCGCTGTA | -0.0654
ACGGTCAG | -0.159
AGATCGCG | 0.0545

Sequence | binding signal [E-score]
ATTTAGAC | 0.0592
CATTCTCC | -0.23
CGGCCGCC | -0.145
AAGAGCCA | -0.0685
ATTCCATG | 0.0159
CGAACACC | 0.474
GGTAGAAC | -0.058
GCGACTAA | 0.0294
AAGTGCAG | -0.262
AGTGATAT | -0.0317
CGAAGTGA | -0.00488
ACACGTGG | 0.32
AATAGCCT | -0.239
CCTCCTAG | -0.0039
AAGTCAGG | -0.124
CCAAGCTC | -0.0476
CTTGTCAC | 0.00724
TATGAGCA | -0.061
AGCTGCGA | -0.225
ATATAATC | -0.102
CTGACAGA | -0.288
GGGGAGAC | 0.0335
CCTATCCA | -0.138
CTGGGCTA | -0.138
AAAGAAGC | -0.16

Sequence | binding signal [E-score]
AGTAGCCA | -0.0864
CAACATGA | -0.14
GACAACCC | 0.0928
CAGTCTCA | -0.113
ACGGCTAT | -0.12
ATAAGGGA | -0.0139
AACTTGCT | -0.196
AGGGTAGC | -0.0219
CTGTAGAC | -0.0949
ATGGAGCC | -0.13
CAATTCGA | -0.153
CCCGCTTA | -0.0868
ATTTACTG | -0.119
GAGCTGTA | -0.32
ACATATAC | -0.0603
ATGAGATC | 0.0346
CTGAATCC | -0.18
ATCAGGAC | -0.193
GTTGCTTA | -0.189
CATCTTGC | -0.136
ACGTCACG | 0.0116
ACTTCAGG | -0.00269
CCTTAAAG | -0.195
CCCCCACG | 0.0253
ACAGGCGA | -0.0581

Sequence | binding signal [E-score]
CAAGTAAA | -0.0231
GAGAATGA | -0.145
ACCAGAGA | -0.103
AAGTTGTC | 0.00368
AACCAATG | -0.159
GCTGAATA | -0.285
AACTCAAT | -0.0505
ATTGTTCG | -0.148
AGAATGGC | -0.245
AAATGGCA | -0.236
TACTTGCA | -0.174
ATGGTTGC | -0.161
GGCATTAC | -0.153
ATGTTGAG | -0.159
AACAGACA | 0.115
AACGTCTG | -0.103
AAGTCGAT | -0.216
GCAGTGTA | 0.415
AGCTCCGA | -0.0939
ATCCTATC | -0.0126
CGTGAGAG | -0.233
GTCACGTA | -0.112
CGTTGCGA | -0.0818
CTATTCAG | -0.056
AGTGAAGC | -0.221

Sequence | binding signal [E-score]
AACAATAC | -0.123
GCAGACCC | 0.0323
AAGACCAG | -0.0528
GCCGACAC | 0.422
ACGACCTG | -0.152
ACGAGTCG | 0.138
ATCGACGA | -0.174
TATGCGCA | -0.118
CACCTGAC | 0.279
CCAACCCA | 0.129
ACAACTTC | -0.0929
CCCTTGGC | -0.0562
AAACTTAT | -0.0769
ACAGTACT | -0.0128
AGCGGCCA | -0.271
AGGGTAAT | 0.089
ATCTGCCA | -0.172
GGTTTCAC | 0.139
ACAGGCTC | 0.0419
ACGCAAGG | -0.0365
AACCAAGT | 0.114
GAAATAAC | -0.0686
GATTGGAC | -0.0717
CTACCGAC | -0.102
GAACGTCA | -0.0258

Sequence | binding signal [E-score]
ACACAGGC | 0.0998
TTGAAAAA | -0.083
AGAATAAA | -0.0206
GCTTCGGA | -0.0236
GAACGCCA | 0.0153
CAAGGCAA | -0.249
CAGATCTC | -0.0474
ATTACGAA | -0.145
GCTAAGCC | -0.225
ACATTTCG | -0.227
TGGAAGAA | -0.156
CTAGGAGA | 0.0316
CATTGTAA | 0.0542
CACATAGG | 0.0681
TACCATGA | -0.143
CAACGAAC | -0.156
CCGCGAAG | -0.0261
CCTGTGAC | 0.194
CCCACTAC | 0.124
